The results in this text go back to patent US20100087406A1, “INDUCTION OF INNATE IMMUNITY BY VITAMIN D3 AND ITS ANALOGS” (CEDARS-SINAI MEDICAL CENTER, priority 2004, published 2010).

The subject of assay [1] is CAMP. As to the kind of experiment: Induction of CAMP mRNA expression in HL60 cells (Northern blot).
The subject of assay [2] is CAMP. Put plainly: Induction of CAMP mRNA expression in U937 cells (QRT-PCR, RT-PCR, Northern blot). The assay is classed as cell-based, human. Particulars: listed as Vitamin D3.

The structures appear in SMILES notation.

As to `C=C1/C(=C\C=C2/CCC[C@]3(C)[C@@H]([C@H](C)CCCC(C)(C)O)CC[C@@H]23)C[C@@H](O)C[C@@H]1O` [1,25(OH)2D3, 1,25-dihydroxyvitamin D3], in assay [1] (HL60, 1×10^−6 M to 1×10^−9 M, 24 h, Northern blot), the “induction of CAMP mRNA expression” value was “Moderate induction”. Besides, the “time at which induction of the CAMP gene occurred” value in assay [1] (HL60, 1×10^−7 M, measured at 0, 1, 3, 5 days, listed as Vitamin D3) was found to be 1 days. Further, the “strength of CAMP induction, U937 compared with HL60” value in assay [2] (1×10^−7 M, Northern blot (FIG. 2A)) is given as “substantially higher in the U937 cell line”. Moreover, the “dose responsiveness of CAMP induction” value in assay [2] (U937, 1×10^−6 M to 1×10^−9 M, 24 h, Northern blot) is recorded as “strong, Vitamin D3 dose-dependent induction”. The “induction of CAMP gene expression in the presence of CHX” value in assay [2] (U937, 1×10^−7 M, 20 μg/ml cyclohexamide, 6 and 9 hours, Northern blot) is “not impaired by the presence of CHX”.
